# The list shows a part of the results. These are noisy estimates, calculated here from bound and input reads.
# Target: T1, Pho4 (S. cerevisiae) (UniProt P07270)
# T1 sequence: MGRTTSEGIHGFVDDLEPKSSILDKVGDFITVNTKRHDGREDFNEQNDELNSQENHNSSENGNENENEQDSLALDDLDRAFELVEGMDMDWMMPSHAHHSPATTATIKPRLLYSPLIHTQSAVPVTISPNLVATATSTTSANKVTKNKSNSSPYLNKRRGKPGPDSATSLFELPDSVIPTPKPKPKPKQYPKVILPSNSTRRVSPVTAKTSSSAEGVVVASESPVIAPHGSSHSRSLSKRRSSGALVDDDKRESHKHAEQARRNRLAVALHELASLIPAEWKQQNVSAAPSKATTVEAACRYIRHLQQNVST
# Test: relative binding free energy (BET-seq); higher = weaker binding
# Settings: reference: library average
row,Sequence,relative binding free energy [kcal/mol]
1,GGTTACACGTGTGCGA,0.24
2,TGAGGCACGTGCCGGT,-0.27
3,GGCGACACGTGTTGTT,0.11
4,GTTGGCACGTGCTTGG,-0.1
5,CTAGTCACGTGTTCGT,0.13
6,TGCGACACGTGGACGG,0.1
7,TTAATCACGTGTACGT,0.16
8,GGAGTCACGTGTGGGC,0.19
9,TAGTACACGTGTGGGG,0.17
10,TGGCTCACGTGATGTT,0.49
11,AGTGTCACGTGAGGCC,0.25
12,TATATCACGTGGCGAT,0.04
13,GGAAACACGTGTGTTT,0.11
14,CGTTGCACGTGGGAAA,0.04
15,ACCGGCACGTGGGTGT,-0.25
16,TGTGACACGTGCTAAT,0.1
17,TGATGCACGTGTTAGG,-0.06
18,TTTATCACGTGAGTGC,0.26
19,ATGGGCACGTGTTGTG,-0.09
20,TGGGCCACGTGTGTCG,-0.17
21,AGTTTCACGTGGATTG,0.32
22,AAGTTCACGTGGTTCT,0.26
23,TCGTTCACGTGGTCAG,0.15
24,GGTTCCACGTGGAGAG,0.07
25,TTATTCACGTGCTGGA,0.13

row,Sequence,relative binding free energy [kcal/mol]
1,CTTGTCACGTGGGCAG,-0.02
2,TAGAGCACGTGAGCGG,0.17
3,GTACACACGTGGGTTG,-0.01
4,ATAAACACGTGTTTAT,0.02
5,TTGTGCACGTGAACTG,0.16
6,TAACGCACGTGGGGCG,-0.22
7,TTGTGCACGTGATGAA,0.1
8,TTATGCACGTGGTACT,-0.21
9,TTTATCACGTGCGCGT,0
10,TCTGTCACGTGTTAGA,0.13
11,GTAAACACGTGGTCAG,0.02
12,GGTTTCACGTGGGTGA,0.22
13,CAAGTCACGTGAGGTT,0.21
14,ATAGGCACGTGGGCTC,-0.16
15,CGTGACACGTGGTGTG,-0.16
16,TTTCTCACGTGGATAA,0.28
17,TTGAACACGTGCGCGT,-0.06
18,GTTGACACGTGAGAGT,0.33
19,TGGATCACGTGGAGCT,0.09
20,TTATGCACGTGGTGTT,-0.22
21,TATAACACGTGGGGGC,-0.07
22,TATTGCACGTGATTAT,0.07
23,ATTACCACGTGTCTGG,0.12
24,AGTTTCACGTGACGTT,0.32
25,AAGATCACGTGTTTGG,0.01

row,Sequence,relative binding free energy [kcal/mol]
1,TCGGGCACGTGGGACT,-0.2
2,AGTTTCACGTGTGGGA,0.23
3,AAGTGCACGTGTTGTT,-0.03
4,TGAGTCACGTGGTGTG,0.06
5,TCTCTCACGTGTGGGT,0.11
6,ACATACACGTGGTTTG,-0.04
7,GTGGACACGTGAGGTG,0.28
8,TAAGTCACGTGCAGTG,0.08
9,TTCTTCACGTGAGGAT,0.49
10,GTGTACACGTGTGGGG,0.11
11,ACTGTCACGTGTTTAT,0.08
12,TATGTCACGTGGTGGT,0.05
13,TATACCACGTGGTAGT,-0.18
14,TACGGCACGTGGTTAT,-0.12
15,TTTGCCACGTGTTTAT,-0.09
16,AATAGCACGTGGGTCG,-0.25
17,AAGATCACGTGGTAGG,0.11
18,GAAGTCACGTGTAGTA,0.2
19,TTTAGCACGTGGACAG,-0.13
20,TAGCTCACGTGTGGCT,0.27
21,CAGGTCACGTGTATGA,0.14
22,TGGAGCACGTGAGATG,0.21
23,CTAGTCACGTGTATAT,0.07
24,CTGGACACGTGAGGGG,0.06
25,TTCGGCACGTGGTCGT,-0.28

row,Sequence,relative binding free energy [kcal/mol]
1,TGGTGCACGTGGGAAG,-0.09
2,TAGCGCACGTGGCAGG,-0.2
3,TGGGCCACGTGTGATT,-0.06
4,TTCGTCACGTGGGGAT,0.01
5,TTTCTCACGTGTTCGG,0.24
6,TAAGTCACGTGTTTCG,0.05
7,TTTCTCACGTGCGGTA,0.19
8,AGTTTCACGTGCGTCT,0.23
9,TAGGTCACGTGTCGAA,0.15
10,AGTGTCACGTGGACTT,0.01
11,GGGTGCACGTGTTTAC,-0.01
12,TTGTGCACGTGTCCGT,-0.09
13,TCTGGCACGTGTTTGG,0.02
14,ATGAACACGTGCGGTT,0.07
15,ATTCACACGTGAGTTT,0.24
16,TGCTGCACGTGAAGGA,0.2
17,ATCGTCACGTGGTCTG,-0.01
18,ATAGTCACGTGGGTCT,0.01
19,TGGAACACGTGATTTG,0.22
20,TCGGACACGTGAGTGA,0.2
21,GATTGCACGTGTTCGA,0.17
22,TTTAGCACGTGTTTCG,-0.14
23,CATATCACGTGGGTTT,-0.12
24,GCGTTCACGTGTATAG,0.14
25,CTTTCCACGTGTGGTT,0.21

row,Sequence,relative binding free energy [kcal/mol]
1,CATGTCACGTGTGATT,-0.02
2,TTTCACACGTGTAGTG,0.2
3,CCAGTCACGTGTGGTA,0.27
4,CGGAACACGTGGGTTT,-0.18
5,TTTTACACGTGTTGGC,0.23
6,GATGCCACGTGGTATG,0.02
7,CGAATCACGTGTGTGT,0.1
8,CGCGGCACGTGTTAGG,-0.15
9,GTATTCACGTGTGTGT,0.32
10,TAGGACACGTGGTGTC,-0.03
11,TCGTTCACGTGGGGAG,0.15
12,GGTTACACGTGGTTTC,-0.01
13,TGGATCACGTGGGACT,0.1
14,CGGTACACGTGGGGAA,-0.05
15,GGTCGCACGTGAGGGT,0.32
16,AGGGTCACGTGAGGGC,0.16
17,ATGGTCACGTGAGATA,0.29
18,AGGGGCACGTGGAGCG,-0.23
19,GATTGCACGTGTGCTA,0.15
20,CGTTTCACGTGCGTTT,0.12
21,ATTTGCACGTGAATGG,0.36
22,GTTATCACGTGTCGAG,0.26
23,TTGAACACGTGTATGA,0.03
24,GACATCACGTGTGGTG,0.17
25,AGTGCCACGTGCGGGG,-0.23

row,Sequence,relative binding free energy [kcal/mol]
1,TTTATCACGTGTCTGC,0.24
2,GTGGTCACGTGGCTGC,0.03
3,TTGGTCACGTGACTCG,0.43
4,GAAGGCACGTGAACGG,0.23
5,ATGTGCACGTGTGGCA,-0.02
6,TTTTCCACGTGGTTCT,0.08
7,ATGTCCACGTGGGGTT,-0.03
8,TCGGACACGTGTAAGG,0.21
9,GGGGCCACGTGTATAG,-0.03
10,GTGGTCACGTGTATTA,0.07
11,GGTTGCACGTGGTTGC,-0.02
12,CCGTTCACGTGTTGGA,0.27
13,GAATTCACGTGTGATG,0.28
14,TTGGGCACGTGGAGCT,-0.15
15,GTGCGCACGTGTTGGA,-0.04
16,CTGGACACGTGATTGG,0.06
17,TGGCTCACGTGGGAAG,0.19
18,TCGGTCACGTGTGTGA,-0.01
19,GGCGACACGTGGTTTT,0.01
20,TTTGACACGTGGCGAG,-0.04
21,TTTGTCACGTGAGGTG,0.26
